Source: the supplement of paper PMC3334620
Whole data set: some 33,000 sequences, median “E-score (-0.5 to 0.5)” near -0.012, cut for the highest 2% near 0.29. This is one part of the list.

Molecular target: T1, Ybr033w (UniProt P38073)
T1 sequence: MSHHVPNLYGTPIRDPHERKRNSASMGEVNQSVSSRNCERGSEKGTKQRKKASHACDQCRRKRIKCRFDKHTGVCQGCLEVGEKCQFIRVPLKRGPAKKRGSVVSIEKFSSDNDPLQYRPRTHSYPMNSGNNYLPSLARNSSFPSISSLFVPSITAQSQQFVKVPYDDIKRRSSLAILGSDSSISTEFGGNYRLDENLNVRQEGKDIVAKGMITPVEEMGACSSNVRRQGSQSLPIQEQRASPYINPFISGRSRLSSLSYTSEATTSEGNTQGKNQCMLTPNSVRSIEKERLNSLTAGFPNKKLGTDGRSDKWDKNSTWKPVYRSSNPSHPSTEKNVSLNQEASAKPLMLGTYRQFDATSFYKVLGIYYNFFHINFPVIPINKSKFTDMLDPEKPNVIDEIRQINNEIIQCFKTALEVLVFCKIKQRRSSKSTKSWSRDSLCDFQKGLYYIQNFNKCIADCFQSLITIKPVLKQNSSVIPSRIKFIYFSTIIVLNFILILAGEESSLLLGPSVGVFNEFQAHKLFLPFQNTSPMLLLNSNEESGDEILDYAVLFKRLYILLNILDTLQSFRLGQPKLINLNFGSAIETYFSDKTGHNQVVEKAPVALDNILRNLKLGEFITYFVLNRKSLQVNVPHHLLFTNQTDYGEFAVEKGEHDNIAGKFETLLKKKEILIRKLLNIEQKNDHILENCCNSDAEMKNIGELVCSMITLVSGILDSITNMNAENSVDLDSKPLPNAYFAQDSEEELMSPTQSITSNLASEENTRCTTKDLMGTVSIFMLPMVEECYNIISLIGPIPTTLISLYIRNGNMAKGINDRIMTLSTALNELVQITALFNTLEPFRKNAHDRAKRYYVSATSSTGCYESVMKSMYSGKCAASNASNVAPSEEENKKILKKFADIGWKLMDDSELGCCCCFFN
Assay: PBM E-score (8-mer binding enrichment) (E-score (-0.5 to 0.5)); higher = stronger / more preferred TF binding; most listed sequences are background and not binding sites
Settings: protein concentration: 200 nM; construct: GST-full length
Method in brief: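 Yeast transcription factors, full-length or as DNA-binding domains, were expressed with a GST tag using PURExpress in vitro transcription/translation. At about 100-200 nM they were applied to universal all-10-mer Agilent arrays, double-stranded by primer extension on fresh or once-stripped slides. Fluorescent anti-GST detected bound protein, and masliner normalised the scans. E-scores for ungapped eight-base words, pooled with reverse complements, came from the Universal PBM Analysis Suite.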

Sequence	PBM E-score
AACGCATG	-0.00241
AACAAGTT	0.188
AGTGCAGA	0.00215
AAAACCGC	0.147
AGTACAGC	0.0289
AGGTCGTA	0.143
ACTCCTCA	-0.135
ATACAATC	0.0522
AAACTCCA	0.239
CTGCGCAA	0.0462
CGATCCGA	-0.0807
CACCCTCC	-0.172
CAAAACAC	0.045
TAACTACA	0.25
ACGTAGAG	-0.157
CTGTATGA	-0.0728
AACGAGCT	-0.0935
AAACCTTC	-0.0214
CCTCAGCG	-0.218
GATTGTTA	0.0997
CCAGTAGC	0.142
CCCGACTC	-0.186
ATGAACTG	0.236
AGTGGAAG	-0.166
ACTCCCAC	-0.112

Sequence	PBM E-score
GATGGCCA	-0.0719
TGATACAA	0.177
GTGCGTTA	0.116
ACCATTCT	0.0411
GACAGGAA	0.179
CACCCTGA	-0.219
ATCAAGAA	0.202
AGTATCCA	0.137
ACCCCTAT	-0.213
AAGATGAA	0.0867
CGACCTGC	-0.188
GTCAACGA	-0.147
CGATGTGC	-0.168
CAGTGTGA	0.148
TGATTACA	0.252
AGCTACTG	0.139
TAACGCCA	-0.21
ATGCCTAG	0.0139
CAACCTCC	-0.14
TAGAGCGA	0.0262
ACTAAAAC	0.124
TACGAAAA	0.225
AGCTGTCC	-0.0801
GGGTGTCA	-0.0557
AGAGTTTG	0.042

Sequence	PBM E-score
TACGCCTA	-0.0143
AAACCTGC	0.00588
CGTCACCA	-0.0147
AATAATGC	0.261
CGGCAACA	0.0409
CCCCGACC	-0.253
GTTCGCCA	0.00064
AAAGGACT	-0.146
GCCCGCAA	-0.176
CATCAAAA	0.108
ACGTTTCG	0.0003
ACAGATAT	0.145
AAACTAAG	0.21
ATCATCAT	0.224
GAATAGGA	0.127
CGGAGCAA	0.105
CTCTTACA	0.0927
CGGATCTA	0.0379
ATGTAAAC	0.121
ACTCCCGC	-0.132
ACACGCCA	-0.104
AAAGGGCC	-0.275
CTGGGAAG	-0.125
ATTGGCGC	-0.00082
CTGAGAAC	0.0621

Sequence	PBM E-score
TCATTTCA	0.0938
CAAATGTC	-0.132
GGACAAAA	0.237
CGGCATTC	0.0953
GGGGTATA	-0.249
AGCCCACA	-0.0587
ACATGGAC	0.0947
ATGCACCC	-0.0724
CACTCGAC	-0.162
TAATCTCA	0.103
GCTTGCAA	0.078
ACGGGCTA	-0.252
CTTCTGAA	-0.00241
CCGCGACG	-0.07
ATAGGTAG	0.0525
AAGTTAAA	0.154
ACATGGCG	-0.111
CGGGACGA	-0.0187
ACTTAAGC	0.0594
AAAAAGAG	0.0974
AAGTCCAG	-0.00674
GCGAATAA	0.0126
AGACCGAG	0.0515
GGAATGGA	-0.0588
CCAGGGCC	-0.294

Sequence	PBM E-score
ACGATAAG	-0.00055
AATTCTAC	0.222
AAACCAAA	0.128
ACTGTAAA	0.24
TGACCGAA	-0.0325
ATGGGTAG	-0.0658
CATAAGAC	0.123
ACCCGGAG	0.0501
GAACTTGC	-0.0233
CTTCGATA	0.169
GAGGATTA	0.132
GCCGACAC	-0.193
GGCAGTAA	-0.0561
GCAGCACA	0.0148
CGGGGGTA	-0.214
AGTGTGCC	-0.0819
CCCGAAAA	0.134
CACGCTTA	-0.00386
AGGCTAAT	0.106
AATGCTGT	0.0336
GCCTGCCA	-0.171
CATGTACC	-0.215
CCAAAACC	0.145
AGCCAGCC	-0.241
GTCAACAA	-0.00832

Sequence	PBM E-score
AAATAGTA	0.248
ACTGTCTG	-0.113
CTATCGAG	0.101
GGTCACCA	-0.232
CCGTACTC	-0.00366
GCCGCCTA	-0.207
ACCAACAT	0.241
CTGTGTAC	0.0882
AGTTATCG	0.156
AAGCTAAT	0.177
CGTGGGGC	-0.32
CCAGCGAA	-0.149
CAGGTGAA	0.0712
CAGATCCA	0.0778
GATTTCAA	0.174
TGATAAAA	0.299
ATGATTAG	0.0838
GGCTACCA	-0.203
AGCCACCT	-0.217
ATAGGACG	-0.217
CGTTACGA	0.0624
GCATGCGA	0.122
GCCGTGAC	-0.0789
GGTTCTGA	-0.0472
CCCCTCCC	-0.238

Sequence	PBM E-score
AATCAAGA	0.185
TAAAAGTA	0.194
ATGGCCCA	-0.00322
ACTGACCG	-0.244
CATCTTGA	-0.0154
CGTGACAA	-0.0475
CTTCCCGA	0.101
GGAGATAC	-0.0648
ATCTTGAG	-0.0511
CAGGGCGA	-0.0411
GGGACGAA	-0.19
AACGCATT	0.123
ATCGACTC	-0.182
AGTCATCA	-0.121
AGCCCAAC	0.0217
CGTCGCAG	-0.0303
ACGTAACC	0.0248
GGACATTA	0.0609
GGATGGTA	0.129
CCCGGTGA	-0.183
CAATGATG	0.0296
AGTAAGTC	-0.022
